Measurements published in the GPR68 mutational scans of Howard et al. (2025).
The least precise scores are not listed. Two further conditions of the source, in which the scores hardly spread, are not listed. In variant names, del marks residues removed and ins residues inserted between the two positions. For part of these data: How much ogerin was present is not stated here.

B1: GPR68, Q15743 (parent)
chain: MGNITADNSSMSCTIDHTIHQTLAPVVYVTVLVVGFPANCLSLYFGYLQIKARNELGVYLCNLTVADLFYICSLPFWLQYVLQHDNWSHGDLSCQVCGILLYENIYISVGFLCCISVDRYLAVAHPFRFHQFRTLKAAVGVSVVIWAKELLTSIYFLMHEEVIEDENQHRVCFEHYPIQAWQRAINYYRFLVGFLFPICLLLASYQGILRAVRRSHGTQKSRKDQIQRLVLSTVVIFLACFLPYHVLLLVRSVWEASCDFAKGVFNAYHFSLLLTSFNCVADPVLYCFVSETTHRDLARLRGACLAFLTCSRTGRAREAYPLGAPEASGKSGAQGEEPELLTKLHPAFQTPNSPGSGGFPTGRLA

Assays:
[1] = variants of: B1; assay: cAMP reporter score (Enrich2 score, wild type = 0); higher = more signal; HEK293T, FACS bins
[2] = variants of: B1; assay: surface expression score (Enrich2 score, wild type = 0); higher = more signal; HEK293T, FACS bins

Row | Variant | cAMP reporter score ([1]; pH 5.5) | cAMP reporter score ([1]; pH 6, modulator: ogerin) | cAMP reporter score ([1]; pH 6.5, modulator: ogerin) | surface expression score [2] | cAMP reporter score ([1]; pH 6)
1 | Y205A | 0.461 | -0.1 | 1.65 | -0.32 | –
2 | Y205C | -0.594 | -0.709 | -0.014 | -2.22 | -0.398
3 | Y205D | -1.07 | -1.05 | -0.584 | -2.57 | -0.201
4 | Y205E | 0.243 | -0.12 | -0.928 | -1.3 | -0.811
5 | Y205F | -1.37 | -2.41 | -1.08 | -0.851 | -0.882
6 | Y205G | 0.298 | 1.25 | – | – | –
7 | Y205I | -0.337 | -2.51 | – | -1.15 | -1.98
8 | Y205K | -0.546 | -1.47 | -0.835 | -1.84 | -1.06
9 | Y205L | -1.53 | -1.07 | -0.573 | -0.676 | -1.34
10 | Y205M | -0.223 | -0.811 | -0.875 | -0.899 | -1.53
11 | Y205N | 1.87 | 0.864 | 2.97 | -1.51 | 4.45
12 | Y205Q | -0.277 | -0.4 | -0.04 | -0.99 | 1.51
13 | Y205R | -1.57 | -1.7 | -1.15 | -1.5 | -1.28
14 | Y205T | 0.37 | 0.475 | 0.135 | -0.658 | –
15 | Y205V | -0.943 | -1.1 | -0.426 | -1.95 | -0.235
16 | Y205W | -1.34 | -1.88 | -0.957 | 0.042 | -0.928
17 | Y205_G207del | -1.29 | -1.46 | -1.12 | – | -1.53
18 | Y205_Q206del | -2.22 | – | 0.037 | -2.29 | -1.2
19 | Y205_Q206insG | -1.54 | -1.94 | -1.45 | -2.69 | -1.6
20 | Y205_Q206insGSG | -1.38 | -2 | -0.442 | -1.92 | -0.857
21 | Q206_G207insG | -1.11 | -2.07 | -1.34 | -2.46 | -1.35
22 | Q206_G207insGS | -1.88 | -1.18 | -0.996 | – | -1.19

Row | Variant | cAMP reporter score ([1]; pH 5.5) | cAMP reporter score ([1]; pH 6, modulator: ogerin) | cAMP reporter score ([1]; pH 6.5, modulator: ogerin) | surface expression score [2] | cAMP reporter score ([1]; pH 6)
23 | I208_L209del | -0.586 | – | -1.5 | -2.44 | -0.815
24 | I208del | -1.24 | -1.43 | -1.87 | -0.442 | -1.83
25 | L209A | 0.274 | -0.721 | -0.946 | 0.8 | -0.871
26 | L209C | 0.228 | -0.675 | -1.12 | 1.72 | –
27 | L209D | -0.714 | -1.22 | -0.107 | 0.751 | -1.13
28 | L209F | -0.26 | -0.324 | -0.251 | -1.07 | -1.64
29 | L209G | -0.182 | -0.477 | – | – | -1.07
30 | L209H | -1.25 | -1.07 | -1.46 | 0.003 | -0.728
31 | L209I | 0.474 | – | 0.882 | 1.58 | 1.41
32 | L209K | -1.39 | -1.22 | -1.23 | 0.965 | -0.634
33 | L209M | -0.018 | 0.006 | 0.458 | 0.042 | 0.48
34 | L209N | -0.022 | -0.14 | -0.375 | 1.11 | -0.97
35 | L209P | -1.33 | -2.02 | -1.84 | -1.57 | -1.72
36 | L209Q | -1.52 | -1.28 | -0.833 | -0.321 | -1.23
37 | L209R | -0.159 | -1.12 | -0.42 | 1.65 | -1.54
38 | L209S | -0.944 | -0.784 | -1.66 | 0.07 | -1.58
39 | L209T | 0.53 | 0.499 | -0.038 | 1.78 | –
40 | L209V | -0.105 | -0.676 | -1.31 | 0.315 | -0.724
41 | L209W | 0.986 | 0.847 | 0.759 | 0.265 | –
42 | L209Y | 0.644 | 0.05 | 0.395 | 0.1 | -0.46
43 | L209_R210insG | -0.48 | -0.745 | -0.994 | -1.83 | -0.972
44 | L209_R210insGS | -1.57 | -1.81 | -0.734 | -0.03 | -0.772

Row | Variant | cAMP reporter score ([1]; pH 5.5) | cAMP reporter score ([1]; pH 6, modulator: ogerin) | cAMP reporter score ([1]; pH 6.5, modulator: ogerin) | surface expression score [2] | cAMP reporter score ([1]; pH 6)
45 | R210A | 0.006 | 0.666 | – | 0.085 | 0.542
46 | R210C | 0.258 | -0.064 | -0.271 | 0.503 | –
47 | R210D | -0.432 | -0.577 | -0.489 | -0.951 | -0.809
48 | R210E | -0.031 | 0.196 | -0.487 | -1.65 | -0.162
49 | R210F | 1.04 | 0.679 | -0.3 | 0.723 | -0.197
50 | R210G | 0.023 | 0.015 | -0.514 | -0.4 | -0.044
51 | R210H | 0.436 | 0.145 | -0.512 | -0.345 | -1.31
52 | R210I | 0.214 | 0.502 | 0.178 | -0.193 | -0.432
53 | R210K | 0.363 | 0.593 | 1.07 | -0.702 | -0.974
54 | R210L | 0.694 | 0.522 | – | 0.013 | –
55 | R210M | 0.52 | 0.075 | -0.615 | -0.585 | -0.59
56 | R210N | 0.745 | 0.491 | -0.441 | 0.131 | 0.677
57 | R210P | -1.12 | -2.18 | -1.09 | – | -1.04
58 | R210Q | -0.879 | -0.872 | -0.586 | -1.07 | -0.773
59 | R210T | 0.339 | 0.308 | -0.749 | 0.067 | –
60 | R210V | 0.498 | 0.915 | 0.212 | -0.697 | 0.683
61 | R210W | 0.809 | 1.02 | 0.224 | 0.248 | -0.265
62 | R210_A211insG | -2.04 | -3.24 | -0.746 | -0.398 | -0.576
63 | R210_V212del | -1.69 | -1.04 | -1.24 | -1 | –
64 | R210del | -1.16 | -1.08 | -1.12 | -0.779 | -0.981
